Laboratory results reported in PubChem BioAssay AID902 (National Center for Advancing Translational Sciences (NCATS), 2007).
Hit rate of the full screen: of about 130,000 compounds, about 1,900 (1.5%) were called active. The shares of active, inactive and inconclusive entries below differ from those in the screen. Calls come from the whole dose curve; as a rule, active = well fitted cell-killing curve with a large enough effect; inconclusive = small, poorly fitted or top-dose-only effect; inactive = no such curve, though single readings can be large or run the other way. Where the call is inconclusive, the potency comes from a doubtful curve fit.
% is set by controls: 0 for no effect and ±100 for the full control effect; potency is the fitted concentration of half-maximal effect; tags give direction and shape of the fitted curve.

Test: qHTS Screen for Compounds that Selectively Target Cancer Cells with p53 Mutations: Cytotoxicity of p53ts Cells at the Nonpermissive Temperature; note: nearly all actives have a fitted effect of over 55% in size
Settings: H1299-p53A138V viability at 39C, ATP luminescence, 24 h; activity change, negative = cell killing: at 46.1 µM (top of the series)
With COCCn1c(=O)c(-c2cn(C)c3ccccc23)nc2cnc(OCc3ccccc3)nc21 the “activity change, negative = cell killing” value was inactive: 4.88%.
In the case of O=C(c1ccco1)N1CCC2(CC1)CCN(C(c1ccccc1)c1ccccc1)CC2, the Potency is reported as inconclusive: 25.1 µM [cytotoxic, single point].
In the case of CC(C)=CCC/C(C)=C/CO/N=C1/C[C@@H](O)[C@@H](O)[C@@H]2[C@@H]3C(=O)N(Cc4ccc5c(c4)OCO5)C(=O)[C@H]3CC[C@H]12, the activity change, negative = cell killing is reported as inactive: 9.19% [at 9.22 µM].
In the case of Cc1nc2nc(SCC(=O)NCCc3ccc(Cl)cc3)nn2c(C)c1Cc1ccccc1, the “activity change, negative = cell killing” value is reported as inactive: -2.66%.
For S=c1nc[nH]c2nc[nH]c12, the Potency was active: 7.94 µM.
With CCOC(=O)c1[nH]c(C)c(CCC(=O)NCc2ccccc2Cl)c1C the “activity change, negative = cell killing” value was inactive: -7.1%.
In the case of Cc1cc(C)cc(OCCCn2c(CCNC(=O)C3CCCCC3)nc3ccccc32)c1, the Potency is reported as inconclusive: 25.1 µM [cytotoxic, single point].
In the case of COc1ccc(-c2cc(C(=O)NCc3ccc(F)cc3)c3c(-c4ccc(F)cc4)[nH]nc3n2)cc1OC, the Potency is reported as active: 12.6 µM.
With CCOc1cccc(C(=O)Nc2ccc(N3CCN(S(C)(=O)=O)CC3)cc2)c1 the “activity change, negative = cell killing” value was inactive: -5.85%.
For Cc1cccc(CSc2cn(CC(=O)N3CCCC3)c3ccccc23)c1, the Potency was inconclusive: 0.158 µM [cytotoxic, full curve].
In the case of CN(C)S(=O)(=O)c1ccc(Nc2ccc(O)c3c2C(=O)c2c([N+](=O)[O-])ccc(O)c2C3=O)cc1, the activity change, negative = cell killing is reported as inactive: -2.85% [at 9.22 µM].
For CCOc1ccc(CC(=O)Nc2c(C(=O)c3ccc(C)cc3)oc3ccccc23)cc1OCC, the Potency was inconclusive: 20 µM [cytotoxic, single point].
In the case of CCOC(=O)c1cc(C)n(CC2CCC(C(=O)Nc3ccc(Cl)cc3)CC2)c1C (centres undefined), the “activity change, negative = cell killing” value is reported as inactive: -6.56%.
For O=C(Nc1ccc(CN2CCOCC2)cc1)c1cc2ccccc2o1, the Potency was active: 10 µM.
In the case of CCOc1ccc(-c2nc(-c3cccnc3)no2)cc1, the Potency is reported as inconclusive: 35.5 µM [cytotoxic, single point].
In the case of O=C(Nc1cccc(C(=O)N2CCN(c3ccc(Cl)cc3)CC2)c1)c1nsc2ccccc12, the Potency is reported as inconclusive: 7.94 µM [cytotoxic, partial curve].
With COc1ccc(-n2c(=O)c3ccc(C(=O)NCc4ccc(C)cc4)cc3n(CC(=O)Nc3ccc(F)cc3)c2=O)cc1 the Potency was active: 10 µM.
For CCCN1C=CC(=C2C(=O)c3ccccc3C2=O)C=C1, the Potency was active: 0.316 µM.
With CCOC(=O)C1=C(CS(=O)(=O)c2c(C)cc(C)cc2C)NC(=O)NC1c1cccc(OC)c1 (centres undefined) the “activity change, negative = cell killing” value was inactive: 21.9%.
With CC(C)(C)OC(=O)NCCc1nnc(S(=O)(=O)Cc2ccc(Cl)cc2Cl)o1 the Potency was inconclusive: 25.1 µM [cytotoxic, single point].
With CO[C@H]1COC(=O)[C@H](C)COC(=O)[C@@H](OCc2ccccc2)/C=C\[C@@H]1C the activity change, negative = cell killing was inactive: 2.87% [at 9.22 µM].
With CCc1ccc(NC(=O)CSc2nc3n[nH]c(C)c3c(=N)n2-c2ccccc2C)cc1 the Potency was active: 10 µM.
With Cc1cc2nc(-c3cc(NC(=O)c4cc5ccccc5o4)ccc3Cl)oc2cc1C the Potency was inconclusive: 10 µM [cytotoxic, partial curve].
For Cc1ccc(-c2nc3cc(C(C)C)ccc3o2)cc1NC(=O)c1cccs1, the Potency was inconclusive: 12.6 µM [cytotoxic, single point].
For O=C1Nc2c(Br)cc(Br)cc2C1(O)N1CCOCC1 (centres undefined), the Potency was inconclusive: 31.6 µM [cytotoxic, single point].
In the case of CCNc1ncc2nc(-c3cc(F)cc(F)c3)c(=O)n(CCOC)c2n1, the “activity change, negative = cell killing” value is reported as inactive: -4.92%.
With CCc1ccc2oc(-c3cc(N)ccc3O)nc2c1 the Potency was active: 12.6 µM.
With CC(C)OCCCNC(=O)c1ccc(-n2c(-c3ccccc3)cc3c2CCCC3)cc1 the Potency was inconclusive: 12.6 µM [cytotoxic, partial curve].
For CCOC(=O)CSc1nc(N)c(C#N)c(-c2ccc(OCC)cc2)c1C#N, the “activity change, negative = cell killing” value was inactive: -14.4%.
In the case of CCc1nn(CC(=O)N2CCCCC2)c(=O)c2cc3sccc3n12, the “activity change, negative = cell killing” value is reported as inactive: 20%.
With OCc1ccc(-c2nn(Cc3ccccc3)c3ccccc23)o1 the Potency was inconclusive: 20 µM [cytotoxic, single point].
For C=CCn1c(C)cc(C(=O)COc2nncc3ccccc23)c1C, the Potency was inconclusive: 20 µM [cytotoxic, single point].
For CC(C)c1ccc(NC(=O)c2csnn2)cc1, the Potency was active: 15.8 µM.
With CC(C)C(=O)Nc1cccc(-c2nc3ccccc3c(=O)o2)c1 the Potency was inconclusive: 15.8 µM [cytotoxic, single point].
For CC(=O)Nc1ccc(/C=N/Nc2nc3ccccc3[nH]2)cc1, the Potency was inconclusive: 35.5 µM [cytotoxic, single point].
With Cn1cccc1C(=O)OCc1csc(-c2ccccc2)n1 the Potency was inconclusive: 10 µM [cytotoxic, partial curve].
For COc1cc(-c2noc(-c3ccc(NCc4cccnc4)c([N+](=O)[O-])c3)n2)cc(OC)c1OC, the Potency was inconclusive: 0.199 µM [cytotoxic, full curve, poor fit].
For CCOc1ccc(CCNC(=O)CCCn2nc(C)c3sc4ccccc4c3c2=O)cc1OCC, the Potency was inconclusive: 10 µM [cytotoxic, partial curve].
In the case of O=C(CSc1nccn1-c1ccccc1)Nc1nc2ccccc2s1, the Potency is reported as inconclusive: 31.6 µM [cytotoxic, single point].
In the case of CCn1c(N2CCN(CC(=O)c3c[nH]c4ccccc34)CC2)nc2c1c(=O)[nH]c(=O)n2C, the “activity change, negative = cell killing” value is reported as inactive: -0.339%.
With COc1cc(C(=O)Oc2c(Sc3ccc(C)cc3)c(C)nn2-c2ccccc2)cc(OC)c1OC the “activity change, negative = cell killing” value was inactive: -5.55%.
With O=C(Nc1ccc(N2CCCCC2)cc1)c1ccccc1 the Potency was active: 12.6 µM.
In the case of Cc1oc(-c2ccc(C(=O)Nc3cc(F)ccc3F)cc2)nc1COc1ccccc1, the Potency is reported as inconclusive: 0.0224 µM [cytotoxic, full curve, poor fit].
For COC(=O)c1n[nH]n(-c2ccccc2)c1=O, the “activity change, negative = cell killing” value was inactive: 10.8%.
In the case of COc1cccc(-c2nccc(-n3ccnc3)n2)c1, the Potency is reported as inconclusive: 10 µM [cytotoxic, partial curve].
With COc1ccccc1CCNC(=O)C(=O)NCC(c1ccco1)S(=O)(=O)c1ccc(C)cc1 (centres undefined) the “activity change, negative = cell killing” value was inactive: 0.638%.
In the case of COc1ccccc1Nc1cc(C(=O)NCc2cccs2)c2ccccc2n1, the Potency is reported as inconclusive: 11.2 µM [cytotoxic, single point].
For Cc1ccc(NCc2nc3ccccc3n2CCOc2ccccc2)cc1, the Potency was inconclusive: 31.6 µM [cytotoxic, single point].
With Clc1ccc(-c2nnc(NC3=NCCCCC3)o2)cc1 the Potency was active: 12.6 µM.
With O=C(CC(NCc1cccnc1)C(=O)O)Nc1ccc(F)cc1 (centres undefined) the “activity change, negative = cell killing” value was inactive: 14.5%.
In the case of COC(=O)[C@@]1(Cc2ccc(OC)cc2)[C@H]2c3cc(C(=O)N(C)C)n(Cc4ccc(OC(F)(F)F)cc4)c3C[C@H]2CN1C(=O)c1ccccc1, the “activity change, negative = cell killing” value is reported as inactive: 9.06%.
For CC1(C)CC(=O)C2=C(C1)NC(SCC(=O)Nc1ccccc1)=C(C#N)C2c1ccco1 (centres undefined), the “activity change, negative = cell killing” value was inactive: 4.58%.
In the case of COc1ccc(NC(=O)c2cccs2)cc1O, the Potency is reported as inconclusive: 1.58 µM [cytotoxic, partial curve].
In the case of CC(C)OC(=O)c1ccc(N2C(=O)C3CC=CCC3C2=O)cc1 (centres undefined), the “activity change, negative = cell killing” value is reported as inactive: -2.51%.
For Cc1cc(NC(=O)NC2(C(F)(F)F)Oc3ccc(Cl)cc3O2)no1 (centres undefined), the Potency was inconclusive: 12.6 µM [cytotoxic, partial curve].
For COc1ccc(CNc2cc(-c3ccccc3CN(C)C)ncn2)c(OC)c1, the “activity change, negative = cell killing” value was inactive: -6.56%.
In the case of Cc1cc(OCC(=O)N(Cc2ccc(N(C)C)cc2)CC2CCCO2)ccc1Cl (centres undefined), the Potency is reported as inconclusive: 31.6 µM [cytotoxic, single point].
With CC(C)c1ccc2oc(-c3ccc(N)cc3)nc2c1 the Potency was active: 6.31 µM.
In the case of S=C=Nc1cccc(NC(=S)NCCCCNC(=S)Nc2cccc(N=C=S)c2)c1, the “activity change, negative = cell killing” value is reported as inactive: 2.29%.
With COC(=O)c1ccc(C(=O)OC)c(NC(=O)c2ccc(-c3ccccc3)s2)c1 the “activity change, negative = cell killing” value was inactive: 1.65%.
In the case of CCCC(=O)Nc1cccc(NC(=O)c2ccc3c(c2)OCCO3)c1, the Potency is reported as inconclusive: 20 µM [cytotoxic, partial curve].
For N#CCSc1nnc2c(Cl)cc(Cl)cn12, the “activity change, negative = cell killing” value was inactive: -10.9%.
For CCCS(=O)(=O)NCCc1sc2nc(-c3ccc(F)cc3)nn2c1C, the Potency was inconclusive: 0.005 µM [cytotoxic, full curve].
For Cc1cc(C)n(-c2nnc(Nc3ccc(C)c(Cl)c3)c3ccccc23)n1, the Potency was inconclusive: 31.6 µM [cytotoxic, single point].
For c1csc(CNc2ncncc2-c2ccc3c(c2)OCO3)c1, the “activity change, negative = cell killing” value was inactive: -18%.
In the case of COc1cccc(CNc2cc(C)nc3nc(-c4ccc(C)cc4)nn23)c1, the Potency is reported as active: 7.94 µM.
In the case of COc1cc(C2C(=O)N(C3CCCCCC3)CC(=O)N2CCc2ccccc2)ccc1OC(C)C (centres undefined), the Potency is reported as inconclusive: 0.0251 µM [cytotoxic, full curve].
With Cc1ccc2nc(N/N=C\c3cccc(C)n3)cc(C)c2c1 the activity change, negative = cell killing was inactive: -1.99% [at 9.22 µM].
In the case of COc1ccc(Nc2c3c(nc4ccc(NC(=O)c5ccc(F)cc5)cc24)CCCC3)cc1OC, the Potency is reported as inconclusive: 20 µM [cytotoxic, single point].
With CCC(C(=O)NC1CCC(C)CC1)n1nc(C)c2sc3ccccc3c2c1=O (centres undefined) the “activity change, negative = cell killing” value was inactive: -15.2%.
In the case of Cc1cc(C)cc(NC(=O)CSc2oc(-c3ccco3)nc2S(=O)(=O)c2ccc(Cl)cc2)c1, the Potency is reported as active: 6.31 µM.
For CCCOc1ccc(CNC(=O)CCCn2nc(C)c3sc4ccccc4c3c2=O)cc1, the Potency was inconclusive: 10 µM [cytotoxic, partial curve].
For COc1cc(Cl)c(C)cc1NC(=O)Cn1ncc2c1-c1cc(C)ccc1OC2, the Potency was active: 12.6 µM.
With CC1(C)Cc2c(sc3nc(SCC(=O)N4CCOCC4)nc(N)c23)CO1 the Potency was inconclusive: 31.6 µM [cytotoxic, single point].
